The source of these data is PMC4336329 (PLoS ONE, 2015).

The campaign covered roughly 310,000 compounds. About 14,000 (4.5%) showed an effect of 50% or more. Effects have a minus sign here. The list shows a part of the results.
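Note: peak tail current of the secondary pulse compared with the same well before compound.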

The target of this assay is human ether-à-go-go-related gene (hERG) potassium channel (human, UniProt Q12809). As to the kind of experiment: primary screen, population patch clamp on CHO cells stably expressing hERG.
Sequence of human ether-à-go-go-related gene (hERG) potassium channel (Q12809 whole entry, looked up): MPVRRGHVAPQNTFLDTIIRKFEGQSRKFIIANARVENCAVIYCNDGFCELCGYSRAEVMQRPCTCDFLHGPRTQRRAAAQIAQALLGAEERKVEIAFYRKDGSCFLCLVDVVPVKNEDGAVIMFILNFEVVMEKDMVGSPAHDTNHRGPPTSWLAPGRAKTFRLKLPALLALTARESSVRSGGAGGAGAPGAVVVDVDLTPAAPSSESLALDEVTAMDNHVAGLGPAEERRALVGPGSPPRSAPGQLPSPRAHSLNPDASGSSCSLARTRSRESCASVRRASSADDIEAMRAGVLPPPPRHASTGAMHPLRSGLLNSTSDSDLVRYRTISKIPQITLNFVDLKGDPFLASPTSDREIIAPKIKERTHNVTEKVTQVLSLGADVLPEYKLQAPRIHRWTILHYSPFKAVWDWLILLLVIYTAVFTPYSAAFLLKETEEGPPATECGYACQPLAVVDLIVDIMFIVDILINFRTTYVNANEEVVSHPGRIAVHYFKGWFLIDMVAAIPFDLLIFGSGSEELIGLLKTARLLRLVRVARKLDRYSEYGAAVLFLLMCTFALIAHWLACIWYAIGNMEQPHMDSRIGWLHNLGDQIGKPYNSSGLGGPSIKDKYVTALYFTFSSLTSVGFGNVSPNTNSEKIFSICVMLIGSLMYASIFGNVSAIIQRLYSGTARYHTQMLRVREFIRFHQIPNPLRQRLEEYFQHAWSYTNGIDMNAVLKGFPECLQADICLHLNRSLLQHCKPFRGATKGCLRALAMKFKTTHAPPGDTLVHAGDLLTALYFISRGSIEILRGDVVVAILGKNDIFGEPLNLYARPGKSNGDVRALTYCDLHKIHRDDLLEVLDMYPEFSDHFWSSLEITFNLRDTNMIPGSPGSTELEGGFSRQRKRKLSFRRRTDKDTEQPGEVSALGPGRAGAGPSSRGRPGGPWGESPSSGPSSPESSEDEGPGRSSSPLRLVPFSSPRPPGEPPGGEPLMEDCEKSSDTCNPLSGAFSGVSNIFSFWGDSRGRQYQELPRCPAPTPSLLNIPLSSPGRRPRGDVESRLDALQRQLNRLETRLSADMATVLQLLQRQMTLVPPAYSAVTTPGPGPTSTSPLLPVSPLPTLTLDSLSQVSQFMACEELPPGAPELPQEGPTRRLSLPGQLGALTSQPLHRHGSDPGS
Regarding `COc1cc(NC(=O)c2cnc(N)s2)cc(C(=O)Nc2cccc(C(F)(F)F)c2)c1`, the “hERG current change (%, negative = inhibition) at 10uM” value is -26%.
Next, `FC(F)(F)c1cccc(-c2nc3nc(Cl)c(Cl)nc3[nH]2)c1`: 30.4%; `COC(=O)CN(c1ccccc1OC)S(=O)(=O)c1ccccc1`: 1.9%; `O=C(O)C1CCCN1S(=O)(=O)c1cccc(S(=O)(=O)N2CCCC2C(=O)O)c1` (centres unmarked): 8.66%.
To `CC(=O)N(C)c1ccc(NC(=O)/C=C/c2ccccc2Cl)cc1` belongs 2%; to `Cn1ncc(Cl)c1C(=O)Nc1cccnc1`, 23.9%; to `Cn1c(N2CCOCC2)nc(-c2ccccc2)c1-c1ccccc1`, -41.9%.
To `CN(C)S(=O)(=O)N1CCCC(C(=O)c2ccc(-c3ccccc3)c(F)c2)C1` (centres unmarked) belongs 7.39%; to `N#Cc1cc([N+](=O)[O-])ccc1NC(=O)COC(=O)CC1CCCC1`, -25.1%.
For the molecule `N#C/C(=C\c1cccc(OC(=O)c2cccs2)c1)C(N)=O`, the “hERG current change (%, negative = inhibition) at 10uM” value is -6.23%.
Take `Cc1ccc(C(=O)CSc2nnc(CNc3nc(-c4ccccc4)cs3)n2C)cc1`: the “hERG current change (%, negative = inhibition) at 10uM” value is -9.06%.
Next, `Cc1ccc(NC(=O)C(c2ccccc2)N2CCN(C(=O)c3ccco3)CC2)cc1Cl` (centres unmarked): -21.3%; `COc1cccc(-n2c(C)c3c(OC)cccc(=O)c3c2C)c1`: -11.8%.
Next, `CC(O)c1c(OCc2ccccc2)ncnc1OCc1ccccc1` (centres unmarked): -15.5%.
In the case of `O=C(NCc1cccs1)C1CC(O)CN1C(=O)Nc1ccccc1` (centres unmarked), the “hERG current change (%, negative = inhibition) at 10uM” value is reported as 19.2%.
To `O=C(Nc1ccc(F)cc1)c1sc2cc(C(F)(F)F)cnc2c1-c1cccs1` belongs 5.64%.
Next, `CC1(C)CC(=O)C(=Cc2cn(CCC#N)nc2-c2ccc(F)cc2)C(=O)C1`: 4.1%.
To `CCOC(=O)C1CN(S(=O)(=O)c2ccccc2)C1` belongs -0.886%.
As to `C/C(=N/NC(=O)Cc1cccs1)c1ccco1`, the “hERG current change (%, negative = inhibition) at 10uM” value is reported as 12.5%.
Next, `CC(C)Oc1ccc(C(=O)NC2CCSc3ccccc32)cc1` (centres unmarked): 19.5%; `CN(C(=O)c1cc2ccccc2oc1=O)C1(C)CCS(=O)(=O)C1` (centres unmarked): 9.15%; `COc1ccc(N(CC(=O)Nc2cccc([N+](=O)[O-])c2C)S(C)(=O)=O)cc1OC`: -7.79%.
Next, `O=C(NNC(=O)c1ccccc1[N+](=O)[O-])Nc1ccc(Cl)cc1`: 12.1%; `CCOC(=O)N1CCC(N2C(=O)c3ccc(C(=O)O)cc3C2=O)CC1`: 9.66%; `Nc1cc(N2CCNCC2)c([N+](=O)[O-])cc1Cl`: 0.16%.
To `COC(=O)c1c(C)[nH]c(C(=O)/C=C/c2ccc(C)cc2)c1C` belongs 4.43%; to `Cc1ccc2nc(N3CCN(C(=O)c4cccs4)CC3)c(C#N)cc2c1`, -76.9%; to `Cc1ccc(S(=O)(=O)N/N=C\c2cn(CC(N)=O)c3ccccc23)cc1C`, 5.21%.
As for `O=C(COC(=O)/C=C/c1ccc(F)cc1)Nc1cc(C(F)(F)F)ccc1N1CCOCC1`, the “hERG current change (%, negative = inhibition) at 10uM” value was -3.43%.
To `CSc1cccc(CN2CCCC(CNC(=O)c3ccco3)C2)c1` (centres unmarked) belongs -91.9%; to `O=C(Cc1cccs1)Nc1nnc(SCc2ccc(Br)cc2)s1`, 0.48%; to `CC(=O)Nc1ccc(N(C(=O)CNC(=O)c2ccco2)C(C(=O)NC2CCCC2)c2ccco2)cc1` (centres unmarked), 3.72%.
To `CC(C)c1ccc(NC(=O)CN2C(=O)c3ccccc3S2(=O)=O)cc1` belongs 9.31%; to `CCCOC(=O)c1c(N)n(Cc2cccs2)c2nc3ccccc3nc12`, -14.4%; to `CCOC(=O)N1CCN(S(=O)(=O)c2ccc(C)cc2)C1c1ccccc1` (centres unmarked), -24%.
Next, `O=C(NCc1cc(C(F)(F)F)cc(C(F)(F)F)c1)C12CN(Cc3ccccc3)CC1C(c1cccc([N+](=O)[O-])c1)=NO2` (centres unmarked): -5.93%; `O=C1CN(c2ccccc2)C(=S)N1C(=O)c1ccc(Br)cc1`: 9.72%; `Cc1ccc2cc(S(=O)(=O)NCCC(=O)O)ccc2c1`: -2.04%.
For the molecule `C/C=C\C(=O)Nc1cccc(C2=NOC3(C2)C[C@@H](C(N)=O)N(C(=O)C2(C)CC2)C3)c1` (some centres unmarked), the “hERG current change (%, negative = inhibition) at 10uM” value is 1.48%.
To `COc1ccc2[nH]c(=O)c(CN(C(=O)c3ccco3)C(C)C)cc2c1` belongs 0.433%; to `O=C(CNC(=O)c1ccco1)Nc1ccc(OC(F)F)cc1`, 19.6%.
On to `CC(=O)Oc1ccc(N(C(C)=O)S(=O)(=O)c2ccc(C)cc2C)c2ccccc12`, for which the “hERG current change (%, negative = inhibition) at 10uM” value amounted to 17%.
Next, `CN1c2ccc([N+](=O)[O-])cc2N(C)C1(C)c1ccccc1` (centres unmarked): 18.8%; `COc1ccccc1Nc1cc(N2CCOCC2)c2nonc2c1[N+](=O)[O-]`: 12%.
